Laboratory results from PubChem BioAssay AID493208 (National Center for Advancing Translational Sciences (NCATS), 2011).
Among all 44,000 compounds or so, about 340 (0.77%) were called active. Inconclusive results (about 5%) are left out. Calls follow the shape of the dose curve; as a rule, active = well fitted inhibition curve with a large enough effect; inconclusive = small, poorly fitted or top-dose-only effect; inactive = flat fitted curve, though single readings scatter. This is one part of the list.

Experiment: Acumen qHTS Assay for Inhibitors of the mTORC1 Signaling Pathway in MEF (Tsc2-/-, p53-/-) Cells: Sytravon;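 also: plate controls were DMSO for no effect and rapamycin for full effect; nearly all actives have a fitted effect of over 50% in size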
Details: phospho-rpS6 immunofluorescence/PI, 24 h; series mostly up to 38.3 µM; activity change, negative = inhibition: at the top concentration
Summary of the method: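 Tsc2-/-, p53-/- MEFs (empty-vector stable line) in DMEM + 10% FBS were treated with compounds 24 h at 37 degree Celsius, fixed, and immunostained for phospho-rpS6 (Alexa-488) with propidium iodide counterstain. Laser-scanning cytometry gave % positive cells, normalized against 7.5 nM rapamycin and DMSO.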

Activity change, negative = inhibition, inactive:
CCc1ccc(-n2c(=O)c3c4c(sc3n(Cc3ccc(C)cc3)c2=O)CCC4)cc1 7.58%
Cc1ccccc1CN1c2ccccc2S(=O)(=O)c2ccccc21 -12.5%
COc1ccc(N2CCN(C(CNC(=O)C(=O)NCCc3ccccc3)c3cccnc3)CC2)cc1 (configuration not stated) -0.369%
COc1ccc(C)cc1NC(=O)NCc1cccn1Cc1ccccc1 -8.73%
COc1ccccc1NC(=O)CN(C)S(=O)(=O)c1ccc2c(c1)c(=O)n(C)c(=O)n2C -6.15%
O=C(NCc1ccccc1)c1ccc2nc(CCc3ccccc3)oc2c1 -8.4%
Cc1ccc(CCNC(=O)NCc2noc3ccccc23)cc1 -28.6%
COc1ccc(C)cc1NC(=O)CSc1nc2ccccc2nc1N1CCOCC1 0.766%
CC1CCCN(S(=O)(=O)c2ccc3[nH]c(=O)cc(C(=O)NCCc4ccc(Cl)cc4)c3c2)C1 (configuration not stated) -6.25%
CCOCCCN(C(=O)Nc1ccc(Cl)cc1)C1CCN(C(C)=O)CC1 5.35%
Cc1c(CNC2CCCCCC2)c(C(=O)O)c(C)n1Cc1ccc(F)cc1Cl -2.6%
O=C(COc1ccc(Cl)cc1)Nc1nnc2n1CCS2 2.91%
COc1cc(OC)cc(-c2nc(-c3cccc(C)c3)no2)c1 -3.02%
CC(C)c1ccc(NC(=O)c2ccc(F)c(S(=O)(=O)N3CCCCCC3)c2)cc1 -3.38%
COc1ccc(S(=O)(=O)NCCc2csc3nc(-c4ccc(OC)c(OC)c4)nn23)cc1C 3.94%
O=C1CCSc2ccc(S(=O)(=O)Nc3ccc(Cl)c(C(F)(F)F)c3)cc2N1 -0.128%
CCCCn1c(=O)c2oc3ccccc3c2n(CC(=O)Nc2cccc(Cl)c2C)c1=O 4.37%
CC(C)(C)c1ccc(C(=O)Nc2cc(-c3nc4ccccc4o3)ccc2Cl)cc1 11.3%
CCc1ccccc1NC(=O)c1ccc2c(c1)CCN2S(C)(=O)=O 2.33%
CCc1ccccc1NC(=O)C1CCN(S(=O)(=O)c2ccc3[nH]c(=O)ccc3c2)CC1 1.41%
Cc1noc(C)c1S(=O)(=O)N1CCC(C(=O)Nc2ccc(Br)cc2)CC1 -12.7%
COc1ccc(Cc2nc3ccc(C(=O)NCc4ccc(OC)cc4OC)cc3o2)cc1 -0.814%
COc1ccc(CNC(=O)c2nc(Cn3nc(C)c(Br)c3C)no2)cc1OC 0.455%
COc1cc(NC(=O)c2sc3nc4n(c(=O)c3c2C)CCCCC4)cc(OC)c1OC -7.67%
COc1ccc(CCNC(=O)C(=O)Nc2ccc(C)cc2)cc1OC -0.694%
COc1ccc(N2CCN(S(=O)(=O)c3c(C)[nH]c(=O)[nH]c3=O)CC2)cc1 -4.36%
CCN(C(=O)c1cc2cc3ccc(OC)cc3nc2o1)c1cccc(C)c1 -4.71%
Cc1ccc(C)c(NC(=O)CSc2nc(-c3ccccc3)cc(=O)[nH]2)c1 5.2%
COc1ccc(-c2nc(C(=O)Nc3ccc(C(C)=O)cc3)nn2-c2cccc(Cl)c2)cc1 -6.25%
CC(=O)c1ccc(Oc2nc(C)nc3c2oc2ccccc23)cc1 0.624%
COc1ccc(CN(Cc2ccco2)c2cnc(S(C)(=O)=O)nc2C(=O)Nc2ccc(F)cc2)cc1 0.0116%
COc1ccc(OC)c(-c2csc(-c3c(N)c(C(=O)c4ccccc4)n4ccccc34)n2)c1 1.14%
CCCCOc1ccc(CNC(=O)C2COc3ccc(OC)cc3C2)cc1 (configuration not stated) -7.16%
Cn1c(=O)n(C/C=C/c2ccccc2)c(=O)c2c1nc1n2CCN1c1ccccc1 -10.5%
COc1ccc(S(=O)(=O)N(CC(=O)Nc2cccc(C(F)(F)F)c2)c2ccc(C)cc2)cc1 7.94%
COc1ccc(-n2c(=O)c3c(c4cc(OC)ccc4n3C)n(Cc3cc(C)ccc3C)c2=O)cc1 -4.65%
CCOc1ccc(C(=O)c2cn(CC(=O)Nc3ccc4c(c3)OCO4)c3ccc(OCC)cc3c2=O)cc1 4.5%
O=C(Cn1ncn2nc(-c3cccs3)cc2c1=O)NCc1cccc(Br)c1 4.21%
COC(=O)c1cccnc1-n1c(=O)c2cccnc2n(CC(=O)Nc2c(C)cc(C)cc2C)c1=O -1.46%
Cc1ccc(NC(=O)CN2C(=O)COc3ccc(S(=O)(=O)N4CCCCC4)cc32)cc1N(C)C -4.9%
Cc1cccc(CNC(=O)c2ccc(NC(=O)N3CC(C)Sc4ccccc43)cc2)c1 (configuration not stated) -0.979%
CC(C)CN(CCNC(=O)CN1C(=O)CSc2ccc(S(=O)(=O)N3CCOCC3)cc21)CC(C)C 5.09%
Cc1ccc(NC(=O)Cn2c(=O)n(-c3ccccc3)c(=O)c3ccc(C(=O)NCc4ccc5c(c4)OCO5)cc32)c(C)c1 -27.5%
O=C(/C=C\c1ccc2c(c1)OCO2)NC1CC(=O)N(c2cccc(F)c2)C1 (configuration not stated) -2.81%
O=C(Nc1c(-c2ccc(F)cc2)nc2ccccn12)c1ccccc1F 0.379%
CCOC(=O)c1cccc(NC(=O)c2ccc3nc(Cc4ccccc4)oc3c2)c1 -3.06%
Cc1ccc(-n2c3c(c(=O)[nH]c2=O)C(NC(=O)c2ccccc2C)(C(F)(F)F)C(=O)N3)cc1 (configuration not stated) 6.28%
